# According to the BET-seq Pho4 binding data (Le et al. 2018):
# This is one part of the list. Values were computed here from the reads of four pooled replicates and scatter widely.
# Molecular target: T1, Pho4 (S. cerevisiae) (UniProt P07270)
# T1 sequence: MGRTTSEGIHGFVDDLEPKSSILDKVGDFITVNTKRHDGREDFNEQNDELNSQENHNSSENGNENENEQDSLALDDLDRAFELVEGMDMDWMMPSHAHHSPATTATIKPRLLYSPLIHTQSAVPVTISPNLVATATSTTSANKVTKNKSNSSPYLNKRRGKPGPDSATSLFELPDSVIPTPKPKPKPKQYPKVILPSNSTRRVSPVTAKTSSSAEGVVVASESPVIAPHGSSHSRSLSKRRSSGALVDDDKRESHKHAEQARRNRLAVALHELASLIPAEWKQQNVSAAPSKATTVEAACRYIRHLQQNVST
# Test: relative binding free energy (BET-seq); higher = weaker binding
# Conditions: reference: library average
row,Sequence,relative binding free energy
1,GTATTCACGTGGGTTA,0.19 kcal/mol
2,GGGATCACGTGCGGGA,0.21 kcal/mol
3,GTTAGCACGTGAGGAT,0.27 kcal/mol
4,TCATTCACGTGTAGGG,0.25 kcal/mol
5,GTTGGCACGTGAAGCG,0.07 kcal/mol
6,CTATCCACGTGGTGGG,0.01 kcal/mol
7,TCTATCACGTGAGTTG,0.21 kcal/mol
8,GGGGGCACGTGCGGCT,-0.16 kcal/mol
9,AAGTTCACGTGGGTTT,0.26 kcal/mol
10,TAAGTCACGTGGTAAG,0.04 kcal/mol
11,GTTTTCACGTGTTATT,0.17 kcal/mol
12,TGTGGCACGTGGATTC,0.03 kcal/mol
13,TGATGCACGTGTACGG,-0.12 kcal/mol
14,GGGAACACGTGCTGTG,-0.02 kcal/mol
15,AGGGGCACGTGAACTG,0.02 kcal/mol
16,TGTAGCACGTGGAGAT,-0.16 kcal/mol
17,TGTTCCACGTGTTTCG,0.18 kcal/mol
18,ATTGACACGTGTACGT,0.04 kcal/mol
19,TGTATCACGTGTTTAA,0.05 kcal/mol
20,AGCATCACGTGGGATG,0.03 kcal/mol
21,TTAGTCACGTGGTATT,-0.06 kcal/mol
22,TGTTACACGTGACTTT,0.26 kcal/mol
23,GGTGACACGTGATAGT,0.1 kcal/mol

row,Sequence,relative binding free energy
1,TCTATCACGTGAGGTC,0.33 kcal/mol
2,GGAAGCACGTGGGGAC,-0.17 kcal/mol
3,GGTTACACGTGCGGTT,0.26 kcal/mol
4,AGTTTCACGTGTGATA,0.2 kcal/mol
5,GAGTTCACGTGATGCT,0.45 kcal/mol
6,TAGTTCACGTGGCTAG,0.15 kcal/mol
7,TTCGGCACGTGTGCGG,0.03 kcal/mol
8,CGGAGCACGTGGTCTG,-0.21 kcal/mol
9,ATTGGCACGTGTGACG,-0.04 kcal/mol
10,GGTTTCACGTGTACAG,0.1 kcal/mol
11,TTCGGCACGTGGATTA,-0.05 kcal/mol
12,GCTAGCACGTGGGTTG,-0.05 kcal/mol
13,TGGGTCACGTGGTGGT,0.11 kcal/mol
14,TCTATCACGTGTGGGC,0.25 kcal/mol
15,ACGGTCACGTGATGAG,0.34 kcal/mol
16,CGGGGCACGTGGGGAA,-0.27 kcal/mol
17,CGTCGCACGTGCTGGG,-0.05 kcal/mol
18,TTTTACACGTGGTCAG,0 kcal/mol
19,CGTCTCACGTGGGATT,0.24 kcal/mol
20,TGGTTCACGTGCAAAT,0.28 kcal/mol
21,ACGGACACGTGGGGTG,-0.23 kcal/mol
22,TTATACACGTGATTGA,0 kcal/mol
23,TTAGGCACGTGGACGT,-0.19 kcal/mol

row,Sequence,relative binding free energy
1,GCGGTCACGTGATTGT,0.34 kcal/mol
2,TTCATCACGTGTTTAA,0.03 kcal/mol
3,GAGAGCACGTGGAAGG,-0.06 kcal/mol
4,AGTGGCACGTGTGTCT,-0.08 kcal/mol
5,CATAGCACGTGTAGTT,-0.02 kcal/mol
6,TAGGTCACGTGGCTGC,-0.03 kcal/mol
7,GGACGCACGTGTTGGG,-0.06 kcal/mol
8,GTTTTCACGTGGTGTT,0.32 kcal/mol
9,AATTACACGTGTGGAT,0.38 kcal/mol
10,TTGGGCACGTGGCGAG,-0.23 kcal/mol
11,AATATCACGTGTCTGG,0.21 kcal/mol
12,GAAAGCACGTGTGTGG,-0.05 kcal/mol
13,GCGTTCACGTGTGATA,0.29 kcal/mol
14,TTAGTCACGTGGTGGC,0.05 kcal/mol
15,ATTAACACGTGTGTCG,-0.04 kcal/mol
16,TGAGGCACGTGGAAGA,0.07 kcal/mol
17,ATGAGCACGTGCGGTT,0.02 kcal/mol
18,GTAGCCACGTGTGTGG,0.03 kcal/mol
19,GTTTACACGTGGTATA,0.1 kcal/mol
20,ATGCGCACGTGGCTGT,-0.32 kcal/mol
21,AGGGCCACGTGGTATT,-0.26 kcal/mol
22,ATCATCACGTGTTTAT,0.27 kcal/mol
23,GAGGTCACGTGTCAGG,0.19 kcal/mol

row,Sequence,relative binding free energy
1,TTGGTCACGTGTTTTA,0.19 kcal/mol
2,GAAAGCACGTGATTGG,0.22 kcal/mol
3,TTAGTCACGTGTAAAA,0.16 kcal/mol
4,ATGTGCACGTGTGAGC,0.06 kcal/mol
5,GCCATCACGTGGGTGG,0.06 kcal/mol
6,TATGTCACGTGCGTCT,-0.1 kcal/mol
7,TAAGGCACGTGTGTGC,-0.1 kcal/mol
8,TTTCACACGTGCAGGT,0.23 kcal/mol
9,ACTAGCACGTGTTTGG,-0.05 kcal/mol
10,TTTTACACGTGGCGTT,0.1 kcal/mol
11,GTAAGCACGTGTTGGC,-0.05 kcal/mol
12,GGGATCACGTGCGGAA,0.2 kcal/mol
13,ATGTACACGTGAAAGG,0.28 kcal/mol
14,GGTGCCACGTGGTGCG,-0.15 kcal/mol
15,AGGCGCACGTGCGCGG,-0.12 kcal/mol
16,TATGTCACGTGTATAA,0.09 kcal/mol
17,GTGTTCACGTGCGGGT,0.26 kcal/mol
18,GTCGACACGTGGGAGT,-0.02 kcal/mol
19,ATTGTCACGTGAGACG,0.22 kcal/mol
20,GCGGTCACGTGGTGTA,-0.01 kcal/mol
21,AGTGGCACGTGAATCG,0.12 kcal/mol
22,TTAATCACGTGTCTTG,0.05 kcal/mol
23,TTAATCACGTGGTGAA,0.23 kcal/mol

row,Sequence,relative binding free energy
1,TGTGACACGTGTGAGG,0.04 kcal/mol
2,TTTGTCACGTGTAACT,0.18 kcal/mol
3,GGTTTCACGTGATCAG,0.27 kcal/mol
4,TATTTCACGTGTCGCG,0.22 kcal/mol
5,GCAGTCACGTGGCTGT,0.1 kcal/mol
6,CGTGCCACGTGAAGGG,0.08 kcal/mol
7,GGGATCACGTGATGAG,0.35 kcal/mol
8,TAGTTCACGTGTTCCG,0.3 kcal/mol
9,AGTGTCACGTGTTACT,-0.06 kcal/mol
10,AGAGGCACGTGGTATT,-0.25 kcal/mol
11,GATAACACGTGAGTGT,0.18 kcal/mol
12,AGTAGCACGTGGTTCG,-0.21 kcal/mol
13,TTCAGCACGTGGTCGG,-0.19 kcal/mol
14,ATCTTCACGTGGAGGT,0.25 kcal/mol
15,ATGGTCACGTGGAGGT,0.14 kcal/mol
16,GAGTGCACGTGGTTGT,-0.07 kcal/mol
17,TTTATCACGTGGAAAT,0.29 kcal/mol
18,CGTAGCACGTGTTTAG,-0.07 kcal/mol
19,CTGGGCACGTGAGATA,0.21 kcal/mol
20,AAGTTCACGTGTAAGT,0.41 kcal/mol
21,GGGGACACGTGAAGGA,0.33 kcal/mol
22,AACGGCACGTGTGGTA,-0.02 kcal/mol
23,TGGAACACGTGGTAGC,0 kcal/mol
